We go through 79 compounds from ChEMBL document CHEMBL1201862, “PubChem BioAssay data set” (2004).

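All cell lines were grown in 96-well plates and treated with compound for 48 hours. Abbreviation: GI50, concentration required for 50% inhibition of growth.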 Activity calls are given as the source filed them. No stated cut-off is given here; in the data, active = GI50 up to about 1.1 µM and inactive = higher.

This assay deals with NCI-H322M. Kind of assay: inhibition of tumour cell growth, NCI panel, 48 h.
In the case of `COc1c(Cl)c(Cl)c(OC)c2c1C(=O)C=CC2=O`, the GI50 is inactive: 33.7 µM. With `CC1=C(O)C(=O)c2ccccc2C1=O` the figure was inactive: 97.5 µM.

For `COc1cccc(C2c3cc4c(cc3OC(C)(N3CCCC3)C2C)OCO4)c1O` (centres undefined), the GI50 is inactive: 2.19 µM. As for `O=C(O)c1ccc2c(O)c(O)ccc2c1`, the GI50 is inactive: 22.8 µM. Under `O=C1OCC2=C1C(c1ccc3c(c1)OCO3)c1cc3c(cc1O2)OCO3` (centres undefined) stands inactive: 1.5 µM; under `Cc1cc2c(cc1Cl)SC(NNc1ccc([N+](=O)[O-])cc1)=NS2(=O)=O`, inactive: > 10 µM; under `Oc1ccc2ccccc2c1CN(Cc1c(O)ccc2ccccc12)C1CCCCC1`, inactive: 29.6 µM. Under `N#Cc1c(SCc2ccccc2)nc(-c2ccccc2)[nH]c1=S` stands inactive: 28.1 µM; under `NC(=O)/N=C1\NC(Cc2ccccc2)C(=O)N1Cc1ccccc1` (centres undefined), inactive: > 100 µM; under `CCOC(=O)N1CCC2(CC1)C[C@](C)(C(C)=O)C(C)O2` (some centres undefined), inactive: > 100 µM. Regarding `CCC1CN2CCc3cc(OC)c(OC)cc3C2CC1CC1c2cc(OC)c(OC)cc2CCN1C(=O)C1CCCN1C(=O)OCc1ccccc1` (centres undefined), the GI50 is inactive: 22.5 µM. With `COc1c(O)c2ccccc2c2cc(O)ccc12` the figure was inactive: 14.7 µM; with `CCCCCC(=O)Nc1[nH]nnc1C#N`, inactive: > 100 µM. With `Cc1ccc(NC2=NCCO2)c2c1CCC2` the figure was inactive: 52.4 µM.

With `O=C1NN(c2ccccc2)C(=O)C2C3c4ccccc4C(c4ccccc43)C12` (centres undefined), the GI50 was inactive: > 100 µM. Under `CC(=O)C1C(=O)N(C(C)C)C[C@@H]2CCC(=O)C[C@H]12` (some centres undefined) stands inactive: > 100 µM; under `CCn1c2ccccc2c2ccc3c(c21)C(=O)C=CC3=O`, inactive: 24.8 µM. Under `CC(C)c1ccc(/C=C2/C=C(c3ccc4ccccc4c3)OC2=O)cc1` stands inactive: > 100 µM; under `CC#CC(O)(C(=O)OC1CCCN(C)C1)C1=CC=CCC1` (centres undefined), inactive: > 100 µM; under `CC(C)(C)C1=CC(=C(c2ccc(-c3c4nc(c(-c5ccc(C(=C6C=C(C(C)(C)C)C(=O)C(C(C)(C)C)=C6)c6cc(C(C)(C)C)c(O)c(C(C)(C)C)c6)cc5)c5ccc([nH]5)c(-c5ccc(C(=C6C=C(C(C)(C)C)C(=O)C(C(C)(C)C)=C6)c6cc(C(C)(C)C)c(O)c(C(C)(C)C)c6)cc5)c5nc(c(-c6ccc(C(=C7C=C(C(C)(C)C)C(=O)C(C(C)(C)C)=C7)c7cc(C(C)(C)C)c(O)c(C(C)(C)C)c7)cc6)c6ccc3[nH]6)C=C5)C=C4)cc2)c2cc(C(C)(C)C)c(O)c(C(C)(C)C)c2)C=C(C(C)(C)C)C1=O`, inactive: > 100 µM. For the compound `O=[N+]([O-])c1ccc(NN=C2CN3CCN(C2)c2ccccc23)c([N+](=O)[O-])c1`, the GI50 was inactive: > 100 µM.

With `CCC1=[N+](CC)CCN1CC`, the GI50 was inactive: > 100 µM. For `C[C@H](C1CC2(C)OC2(C)C(=O)O1)[C@H]1CC[C@H]2[C@@H]3[C@@H]4O[C@@H]4[C@@]4(O)CC=CC(=O)[C@]4(C)[C@H]3CC[C@]12C` (some centres undefined), the GI50 is inactive: > 50 µM. Under `O=[N+]([O-])c1ccc(Cl)cc1C1ON=C(c2ccccc2)N1C12CC3CC(CC(C3)C1)C2` (centres undefined) stands inactive: > 100 µM.

As for `O=C1NC(Nc2ccccc2)=NC(C(F)(F)F)(C(F)(F)F)N1`, the GI50 is inactive: 57.7 µM. Turning to `C[C@]12CCCC(=O)C1C[C@H](C(=O)O)CC2` (some centres undefined), the GI50 was inactive: > 100 µM.

Turning to `COC(=O)N1CC2(CO)C3CC=C(C(=O)Nc4ccccc4Br)C2C1C3Br` (centres undefined), the GI50 was inactive: > 50 µM. With `CC(=O)OCC1OC(n2c(C)c(C)cc(C#N)c2=S)C(OC(C)=O)C(OC(C)=O)C1OC(C)=O` (centres undefined) the figure was inactive: > 100 µM. With `O=P1(Oc2ccccc2)N=P(c2ccccc2)(c2ccccc2)C=C(c2ccc(Cl)cc2)N1` (centres undefined) the figure was inactive: 13.3 µM; with `O=C(O)[C@@H]1CCS(=O)(=O)N1`, inactive: > 100 µM; with `Cc1ccc(S(=O)OCc2c(C)c(C)c(COS(=O)c3ccc(C)cc3)c(C)c2C)cc1` (centres undefined), inactive: > 100 µM. With `COC1=CC(=O)C(O)=C(CC2(C)C(C)CCC3(C)C2CCCC3(C)C)C1=O` (centres undefined) the figure was inactive: 6.47 µM; with `C=C(c1ccccc1)c1ccccc1-c1cc(-c2ccccc2)cc(-c2ccccc2)n1`, inactive: > 100 µM. As to `N#Cc1nc(/C=C/c2cccnc2)oc1N`, the GI50 was inactive: > 100 µM. With `c1ccc(C(OCCN2CC3CCC(C2)N3)c2ccccc2)cc1` the figure was inactive: 78.7 µM; with `CCOc1ccc(NC(=O)/C(=C/c2ccccc2)C(C)=O)cc1`, inactive: 14.5 µM; with `O=C1NC(=O)C2C1c1[nH]c3ccccc3c1C1CCCC12` (centres undefined), inactive: 15.8 µM. Turning to `CCOC(=O)C(/C(=N\NC(=O)OC)C(=O)Nc1cc(OC)ccc1OC)c1cnc2ccccc2n1` (centres undefined), the GI50 is inactive: > 100 µM. As for `CC(C)=CCC[C@@H](C)c1c2nc3ccccc3sc-2c(C)c(=O)c1O`, the GI50 is inactive: 7.64 µM. With `Cn1cnc([N+](=O)[O-])c1Sc1nccn1-c1ccccc1` the figure was inactive: 77.3 µM; with `COc1ccc(OC)c2c1C(=O)C(O)=C(Cl)C2=O`, inactive: > 100 µM. With `C[C@@H](c1ccccc1)n1c(N)c(-c2ccccn2)c2ccc([N+](=O)[O-])cc2c1=O` the figure was inactive: 48.9 µM. Under `CN1OC(CO)CC12C1CC3CC(C1)CC2C3` (centres undefined) stands inactive: > 100 µM. As for `C/C=C/C1(NS(=O)(=O)c2ccc(C)cc2)CCC(C(C)(C)C)CC1` (centres undefined), the GI50 was inactive: 28.3 µM.

In the case of `COC[C@H](Cc1ccccc1)/N=C/c1ccccc1`, the GI50 is inactive: > 100 µM. Under `O=C(/C=C/c1ccc(OCc2ccccc2)cc1)NCc1ccc(C(=O)NCCc2ccccc2)cc1` stands inactive: > 100 µM. Consider `CCCCSC1=N/C(=C\c2ccc(N(C)C)cc2)C(Cl)=N1`, for which the GI50 is inactive: > 100 µM. With `O=C(CSc1nc2ccc(I)cc2c(=O)n1Cc1ccccc1)NN1C(=O)c2ccccc2C1=O` the figure was inactive: 15.7 µM.

As to `COC1=NCc2ccccc2-c2ccccc21`, the GI50 is inactive: > 100 µM. With `O=C(Nc1ccccc1)Oc1ccc(C(=S)Nc2ccc(Br)cc2)cc1` the figure was inactive: 19.7 µM. Regarding `COC(=O)C1=C(C)N(NC(=O)Nc2ccccc2)C2(N)N(NC(=O)Nc3ccccc3)C(C)=C(C(=O)OC)C12C(=O)OC` (centres undefined), the GI50 is inactive: 57.1 µM.

`N=C(N)N/N=C/c1c(-c2ccc(Cl)c(Cl)c2Cl)nc2sccn12`: the GI50 was inactive: 1.44 µM. Under `CC1=C(C(=O)Nc2ccccc2)C(c2ccc([N+](=O)[O-])cc2)C(C(=O)Nc2ccccc2)=C(C)N1` stands inactive: 38.6 µM. With `O=C1CCSc2nc(-c3ccc4c(c3)OCO4)nn21` the figure was inactive: > 10 µM.

In the case of `C(=C\c1c2oc(-c3ccccc3)cc(-c3ccccc3)c-2c2ccccc12)/C=C1\c2ccccc2-c2c(-c3ccccc3)cc(-c3ccccc3)[o+]c21.[O-][Cl+3]([O-])([O-])[O-]`, the GI50 was inactive: > 100 µM.

As to `CSC(SC)=C(C#N)C(=O)Nc1ccc(Cl)cc1`, the GI50 is inactive: 37.8 µM. Under `O=C(NN1C(=O)CSC1c1ccco1)c1ccncc1` (centres undefined) stands inactive: > 100 µM; under `C=C1C(=O)OC2C1CCC(=C)C1CC(O)C(=C)C12` (centres undefined), inactive: 24.8 µM. `COC1(OC)CC2C(=O)N(Cc3ccccc3)C1C=C2S(=O)(=O)c1ccccc1` (centres undefined): the GI50 is inactive: 37.5 µM.

Regarding `COc1ccccc1NC(=O)C(=O)C1C(=O)Nc2ccccc2[S+]1[O-]` (centres undefined), the GI50 is inactive: > 100 µM. Under `C[C@]12c3c4cc(NC(=O)C(=O)NCc5ccc(-c6ccccn6)nc5)cc3Oc3cc(NC(=O)C(=O)NCc5ccc(-c6ccccn6)nc5)cc(c31)OC1C=C(NC(=O)C(=O)NCc3ccc(-c5ccccn5)nc3)C=C(O4)C12` (some centres undefined) stands inactive: 19.5 µM; under `C#CCC1(C(=O)OCC)C(=O)c2ccccc2N(C)C1=O` (centres undefined), inactive: > 100 µM. With `CCN(CC)C1Oc2cc3c(cc2C(c2ccc(OC)cc2)C1C)OCO3` (centres undefined) the figure was inactive: 21.4 µM; with `COc1cc2cc(OC)c3cc4c(cc3c2c(OC)c1OC)OCO4`, inactive: 58.1 µM. With `CCOC(=O)C1(CC(=O)O)CCCC1=O` (centres undefined) the figure was inactive: > 100 µM; with `O=C1OC(CC(=O)c2ccccc2Cl)C(Cl)=C1Cl` (centres undefined), inactive: > 100 µM; with `COP1(=O)OCc2cnccc2O1` (centres undefined), inactive: > 100 µM. Turning to `O=C(O)c1ccccc1/C=C1/Cc2ccc3c(c2C1=O)CCC3`, the GI50 is inactive: 48 µM.

In the case of `O=C(O)c1ccc(/N=N/c2cc(S(=O)(=O)O)c3cccnc3c2O)cc1`, the GI50 is inactive: > 100 µM. `N#CC(C(=O)CCC(=O)C(C#N)c1ccccc1)c1ccccc1` (centres undefined): the GI50 was inactive: > 100 µM. On to `Cn1cc2ccccc2c1-c1nc(N)nc(F)n1`, for which the GI50 was inactive: > 100 µM. Under `COc1ccc(Cc2cc(Cc3ccc(OC)cc3)cc(Cc3ccc(OC)cc3)c2)cc1` stands inactive: > 100 µM; under `CN1C(c2ccccc2)CC(=O)C(N)C1c1ccccc1` (centres undefined), inactive: 44.7 µM; under `COc1cc2ccc3c4cc(OC)c(OC(C)C)cc4c[n+](C)c3c2cc1OC`, inactive: > 100 µM. With `CCc1nn(CN2CCN(C)CC2)c(=S)n1/N=C\c1ccc(-c2ccc([N+](=O)[O-])cc2)o1` the figure was inactive: > 100 µM; with `O=C(O)Cc1cccc2c(=O)c3cccc([N+](=O)[O-])c3oc12`, inactive: > 100 µM.

For `O=S(=O)(O)c1ccc(NN(c2c(O)ccc3ccccc23)S(=O)(=O)O)cc1`, the GI50 is inactive: > 100 µM. With `Cc1ccc(NC(=O)S(N)(c2ccc(C)cc2)[N+](=O)[O-])cc1` (centres undefined) the figure was inactive: > 100 µM. Under `O=c1c2cc(I)ccc2nc(-c2cccs2)n1Nc1ccccc1` stands active: 0.805 µM.
